According to patent publication US20230136595A1 (Ablynx, published 2023):

Target: T1, human serum albumin (human, UniProt P02768)
T1 construct: also called HSA
Experiment: direct binding ELISA on coated HSA; CEX top fraction depleted of the conformational variant; reference neither enriched nor depleted

B1: Compound A (VHH)
chain: DVQLVESGGGVVQPGGSLRLSCAASGRTFSSIYAKGWFRQAPGKEREFVAAISRSGRSTSYADSVKGRFTISRDNSKNTVYLQMNSLRPEDTALYYCAAVGGATTVTASEWDYWGQGTLVTVSSGGGGSGGGSEVQLVESGGGVVQPGGSLRLSCAASGRTFSSIYAKGWFRQAPGKEREFVAAISRSGRSTSYADSVKGRFTISRDNSKNTVYLQMNSLRPEDTALYYCAAVGGATTVTASEWDYWGQGTLVTVSSGGGGSGGGS[about 120 residues not written out]GGGGSGGGSEVQLVESGGGVVQPGGSLRLSCAASGFTFRSFGMSWVRQAPGKGPEWVSSISGSGSDTLYADSVKGRFTISRDNSKNTLYLQMNSLRPEDTALYYCTIGGSLSRSSQGTLVTVSSGGGGSGGGSEVQLVESGGGVVQPGGSLRLS[about 80 residues not written out]RGQGTLVKVSSA
notes: Pentavalent, trispecific ISVD construct in one chain: OX40L ISVD-9GS-OX40L ISVD-9GS-TNFa ISVD-9GS-HSA ISVD-9GS-TNFa ISVD; Tested as CEX fractions enriched in or depleted of a compact conformational variant; The sample is named in the label and assay of each row; also called F02730252
With B1 the “potency relative to a reference” value was 0.912 relative to reference.
